In the supplement of paper PMC5499739:
Over roughly 16,000 sequences, “Z-score” has its median near -0.37; the highest 2% begin near 3.2. The list shows a part of the results.

Test system: RBM10 RRM1-ZnF (GST-tagged construct)
Assay: RNAcompete 7-mer binding Z-score; higher = stronger binding preference
Procedure, shortened: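 GST-tagged RBM10 constructs (20 pmol) were mixed with a designed pool of 241 399 RNAs up to 41 nt (1.5 nmol), transcribed from microarray-derived DNA templates. Mixing was in 1 ml Hepes pH 7.8 buffer with KCl, NaCl, glycerol, DTT, BSA and glutathione Sepharose beads. Binding ran 30 min at 4°C, followed by four 2-min washes at 4°C, and bound RNA was identified by microarray hybridisation. Each heptamer motif received a one-sided Z-score for enrichment across probes containing it.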

Sequence	RNAcompete 7-mer binding Z-score
UCGAGCG	0.0723
CACAAGU	-0.539
CUGGGUU	1.53
GCAAAUA	-0.236
CAUACUC	-0.727
GGGAAGC	2.9
AAUGCCG	-0.542
UGUUAUU	-0.662
AAUCCCC	-0.607
CAGUGAA	0.277
GUAGAGC	0.667
AUCCUGA	-0.704
UGUUGGC	0.0138
UUAUAUG	-0.21
AAGACCU	-0.698
GGGACAA	2.07
AGAGUAC	-0.292
UGAACUU	-0.571
CAACGCG	-0.451
CUAUCAA	-0.724
ACGGGAG	2.64
CGCUGUU	-0.617
ACUAGGG	2.03

Sequence	RNAcompete 7-mer binding Z-score
UGUGAAU	0.0723
UUCAGUU	-0.675
AUUGGCG	1.12
UUUUCCA	-0.772
UACAUUC	-0.795
CAGCCCU	-0.766
GCCUGGU	-0.227
AAAAGGC	0.579
AGUGUUA	-0.035
GGGUGUA	3.43
GGAUAUG	2.73
AGGAUGU	1.18
AGACGAC	-0.526
CGGAGAA	1.36
GAGUUAU	0.00404
CCGGAUG	0.413
CCCACGU	-0.516
AUCGUGU	-0.399
AGCGCGA	-0.24
AUUCGUG	-0.227
ACGACGU	-0.418
AUGUGCC	-0.506
ACAGCAC	-0.405

Sequence	RNAcompete 7-mer binding Z-score
CGCCUUC	-0.808
GGCGCUC	-0.142
AAAGUAA	0.14
GACUAGG	1.41
UUUAGGG	1.65
UCCAUUG	-0.73
AUUGCUC	-0.717
CCACACU	-0.668
UCGGUUC	-0.451
CCCCCAG	-0.132
GAUUGUU	-0.162
GCCCAAG	-0.236
AUUACCC	-0.805
GCUCGUG	-0.103
ACCGCAA	-0.795
GGGGGUC	2.18
ACAUUUU	-0.893
CUAAAGG	0.566
GGGGGAC	2.25
CAGGGAU	2.36
ACCCAGA	-0.587
AAGAAGU	0.644
UCACGAC	-0.552

Sequence	RNAcompete 7-mer binding Z-score
AGGACCG	-0.165
GUUUUAG	0.157
ACAACUA	-0.467
GCGGUGU	1.1
UUCCCAC	-0.584
AGCGGAA	2.07
GGUCUAA	-0.116
CGGGAUC	0.589
CACCUUC	-0.769
ACUAGUG	0.0983
GCGCACA	-0.139
UUCGGAA	-0.0187
UCACAGA	-0.376
GCAUCCC	-0.516
CCAAGGG	0.745
CAACUGA	-0.396
AUCCGAC	-0.785
CUAGGCG	-0.0609
UUCCUAA	-0.665
UAAAGUU	-0.24
CUAGCCG	-0.659
UAUGUUC	-0.646
GUAGAUG	1.93

Sequence	RNAcompete 7-mer binding Z-score
UUUCCGU	-0.714
UACAGUG	0.0138
UGGCGCU	0.0333
AUUCUUU	-0.681
UUAUCAU	-0.733
CAGGCUG	0.28
GCUUAUC	-0.61
CCUGGCA	-0.334
AACUCAU	-0.694
UACCGGG	0.29
GAAUUAG	0.719
UAGUGUG	0.446
GAGGGGC	2.44
CAGCUAA	-0.428
ACUUAGA	-0.496
CUAAGUU	-0.649
CGAAGUC	-0.655
GAGCUGU	-0.126
UUUUCCU	-0.925
UGUUCGC	-0.604
AGCAAUU	-0.591
CACACGU	-0.438
AACGCUC	-0.74

Sequence	RNAcompete 7-mer binding Z-score
AGCAGAG	1.36
UUUUGGU	0.547
GGUUCGC	-0.0512
GAUAGCU	-0.0414
UAGUGCC	-0.49
CAAACUU	-0.776
AUAUCCA	-0.62
AUAGGCG	0.781
UAUCUGA	-0.717
GGCUAUG	0.508
CACUAAU	-0.834
UACUCUU	-0.818
AAGUGUG	1.18
CAUUGUC	-0.711
GUGAUGA	0.949
CUCCUUU	-0.811
GGUAUGU	1.56
GUUACCC	-0.295
CGUAUUG	-0.285
GGUGGAC	2.49
AAUAGAA	0.592
UGCCAUA	-0.763
UUAGUUA	-0.298

Sequence	RNAcompete 7-mer binding Z-score
CCGAUAG	-0.623
UCCAUUU	-0.919
CGCAAUG	-0.256
CAUAGAC	-0.701
CUCAAGC	-0.636
AAGGAUU	1.45
AUUUCUU	-0.805
AUGGUGC	1.03
ACUUCUA	-0.867
UUCUAGU	-0.591
UGUUCUG	-0.652
GUCUAGC	-0.516
GUUCGAU	-0.545
GAUGUUU	-0.0674
UGUCUGA	-0.688
UAUGUAU	-0.392
UGGUUCU	-0.21
AGGCCAA	-0.451
CUUAAUC	-0.87
CCACGGU	-0.288
CAUUCGU	-0.685
UGUUCUU	-0.88
UUGUCGU	-0.623

Sequence	RNAcompete 7-mer binding Z-score
GCUAUGG	0.923
GCGCUAG	0.121
UAAUUCA	-0.639
GGGAGGU	3.68
CGCUCCG	-0.62
GACUGAC	-0.285
ACCCGCC	-0.714
UUGUUCG	-0.467
UUCACCC	-0.646
CGAACAU	-0.503
GUAGCAG	1.13
AUCACGA	-0.431
CGACGGC	-0.113
GCCCGUG	-0.23
UAUGAGC	-0.162
GAAACCG	-0.327
CCAUUAU	-0.915
AUAAGCU	-0.327
AGGCCUC	-0.756
UAGGCCU	-0.477
UACGUUG	-0.123
CUAAGAU	-0.519
